# Assay results as given in PubChem BioAssay AID1347120 (National Center for Advancing Translational Sciences (NCATS), 2019).
# Screen size: about 390,000 compounds; about 930 (0.24%) were called active. Inconclusive results, whose numbers are uncertain, are shown with a selection of clear calls. Calls come from the whole dose curve; as a rule, active = well fitted activation curve with a large enough effect; inconclusive = small, poorly fitted or top-dose-only effect; inactive = no such curve, though single readings can be large or run the other way. Potencies of inconclusive entries are doubtful fits and often do not repeat.
# Assay: qHTS for Suppressors of FUS Proteinopathy: Primary screen using FUS-linked yeast assay; note: nearly all actives have a fitted effect of over 55% in size;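 for growth rescue (activation): plate controls were DMSO vehicle for no effect and reference control for full effect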
# Details: S. cerevisiae FUS-expressing, OD600, 24 h; Potency: growth rescue; growth rescue (activation): at 76.6 µM (top of the series)
# Outline: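 Quantitative HTS measuring growth restoration of FUS-toxic yeast. Galactose-induced cells (OD 0.005) were exposed 24hr at 30C to compounds at several concentrations, then absorbance at 600 nm was recorded.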
# Potency is the fitted concentration of half-maximal effect; tags give direction and shape of the fitted curve.
Structure (SMILES),Potency,growth rescue (activation)
Cc1noc(/C=C/c2ccco2)c1S(=O)(=O)N1CCC(C(=O)Nc2ccc(F)c(Cl)c2)CC1,"inconclusive: 50.1 µM [activator, single point]",
CCN(Cc1ccccc1)C(=O)COc1cc(=O)n(CC)c2ccccc12,"inconclusive: 6.31 µM [activator, full curve]",
COc1ccc(N2CCN(C(=O)c3ccc4c(c3)CC(c3ccccc3)OC4=O)CC2)cc1 (configuration not stated),"inconclusive: 28.2 µM [activator, single point]",
CC1CN(S(=O)(=O)c2cccc(-c3cn4ccccc4n3)c2)CC(C)O1 (configuration not stated),,inactive: -10.6%
CN1C(=O)C(C)(C)c2cc(S(=O)(=O)N3CCCC(C(=O)Nc4ccc(Cl)cc4)C3)ccc21 (configuration not stated),"inconclusive: 44.7 µM [activator, single point]",
COc1ccc(Cn2c(C(=O)O)c(CNC3CCCCCC3)c3ccc(OC)cc32)cc1,"inconclusive: 31.6 µM [activator, single point]",
CC(C)(C)c1csc(NC(=O)C2COc3ccccc3O2)n1 (configuration not stated),,inactive: 17.6%
CCN(CC)S(=O)(=O)c1cccc(S(=O)(=O)N2CCCCC2)c1,,inactive: 3.46%
CC(=O)c1cccc(-c2ccc3c(=O)[nH]c(Nc4ccccc4)cc3c2)c1,"inconclusive: 25.1 µM [activator, single point]",
CC1CCc2[nH]c3ccc(C(=O)N(C)CC(=O)Nc4ccccc4C(F)(F)F)cc3c2C1 (configuration not stated),"inconclusive: 28.2 µM [activator, single point]",
COc1ccccc1C(=O)NCCn1cc(SCc2ccccc2Cl)c2ccccc21,"inconclusive: 50.1 µM [activator, single point]",
CC(C)CC(=O)N1CCN(c2ccc([N+](=O)[O-])c(NCc3ccccc3)c2)CC1,"inconclusive: 22.4 µM [activator, partial curve, poor fit]",
Cc1cc2c(=O)n(C)c(SCC(=O)NCC3CCCO3)nc2s1 (configuration not stated),"inconclusive: 35.5 µM [activator, partial curve, poor fit]",
Cc1cc(C)c(S(=O)(=O)/N=C2/C=C(Sc3ncn[nH]3)C(=O)c3ccccc32)cc1C,"inconclusive: 28.2 µM [activator, partial curve]",
COc1cc(NC(=O)NC(C)c2c(-n3cccc3)sc3c2CCCC3)cc(OC)c1OC (configuration not stated),"inconclusive: 35.5 µM [activator, single point]",
CCc1ccccc1NC(=O)C1CCCN(S(=O)(=O)c2ccc3c(c2)CC(C)N3C(C)=O)C1 (configuration not stated),,inactive: 16.5%
Cc1cc(-c2ccco2)n(-c2ccccc2)n1,"inconclusive: 15.8 µM [activator, partial curve]",
Cc1ccccc1CN1CCC(CNc2ncnc3onc(-c4ccc(F)cc4)c23)CC1,,inactive: -8.12%
CCc1nc(N2CCN(C(=O)c3ccccc3)CC2)c2c3c(sc2n1)CCCC3,"inconclusive: 35.5 µM [activator, single point]",
O=C(C[C@@H]1C/C=C\C[C@H](NC(=O)OCC2c3ccccc3-c3ccccc32)C(=O)O[C@H](c2ccccc2)CNC1=O)NCCO,"inconclusive: 50.1 µM [activator, single point]",
CC(=O)C1=CCC(c2ccccc2)N(S(=O)(=O)c2ccc(Cl)cc2)C1 (configuration not stated),"inconclusive: 28.2 µM [activator, single point]",

Structure (SMILES),Potency,growth rescue (activation)
COc1ccc(S[C@]2(C(=O)NC3CC3)CC(=O)N[C@@H]2c2ccc(OC)cc2)cc1,,inactive: 3.01%
CCOc1ccccc1N(C)C(=O)C1CCCN(c2ncnc3c2nc2n3CCCCC2)C1 (configuration not stated),,inactive: 8.4%
Cc1ccc2c(CC(=O)Nc3ccc(S(=O)(=O)N4CCCCC4)cc3)coc2c1,"inconclusive: 28.2 µM [activator, single point]",
COc1ccc(N(C(=O)c2ccco2)S(=O)(=O)c2cc(OC)ccc2OC)cc1,,inactive: 13%
COc1ccc(C(=O)OC2=C(C(=O)c3ccccc3)N(C)S(=O)(=O)c3ccccc32)cc1OC,,inactive: 11.9%
CCNC(=O)c1c(NC(=O)Cc2coc3cc(C)cc(C)c23)sc2c1CCCC2,,inactive: 17.9%
CCCCCCCCCCCC(=O)O,"inconclusive: 7.08 µM [activator, full curve, poor fit]",
Cc1c(C(=O)N2CCC(c3nc4ccccc4s3)CC2)oc2ccc(Cl)cc12,"inconclusive: 50.1 µM [activator, single point]",
CCCCCCCCCCCCN1[C@@H](CC(=O)O)c2cc(C(F)(F)F)ccc2S1(=O)=O,"inconclusive: 35.5 µM [activator, single point]",
COc1ccc(-n2c(Cc3cccs3)nnc2SCC(=O)Nc2ccc3c(c2)OCCO3)cc1,"inconclusive: 25.1 µM [activator, partial curve]",
NC(=O)[C@@H]1CC2(CC(c3cccc(NC(=O)CC(c4ccccc4)c4ccccc4)c3)=NO2)CN1C(=O)[C@@H]1CCC(=O)N1 (some centres not stated),"inconclusive: 20 µM [activator, partial curve, poor fit]",
COc1cccc(N2CCN(C(=O)CCn3nnc4ccccc43)CC2)c1,,inactive: -6.74%
Cc1nc(SCC(N)=O)[nH]c(=O)c1C,,inactive: -10.6%
O=C(Nc1cccc(S(=O)(=O)N2CCCCC2)c1)c1ccc(S(=O)(=O)C(F)F)cc1,"inconclusive: 11.2 µM [activator, partial curve, poor fit]",
Cc1ccccc1C(=O)N1CCC(C(=O)Nc2cccc(S(=O)(=O)N3CCCCC3)c2)CC1,"inconclusive: 22.4 µM [activator, single point]",
CC1CCN(S(=O)(=O)c2cccc(C(=O)N3CCN(c4ccc(F)cc4)CC3)c2)CC1,"inconclusive: 50.1 µM [activator, single point]",
O=C1CC(/C=C/c2ccncc2)=Nc2ccccc2N1,,inactive: 2.11%
O=C(Cc1cccc2ccccc12)Nc1ccc(-c2cc3ccccc3oc2=O)cc1,"inconclusive: 31.6 µM [activator, partial curve, poor fit]",
CCCNC(=O)c1ccc(N2CC3CC(C2)c2cccc(=O)n2C3)c(NC(=O)Nc2ccc(CC)cc2)c1 (configuration not stated),"inconclusive: 31.6 µM [activator, partial curve, poor fit]",
Cc1cc(C)c(C(=O)N2CCCC(N3CCN(c4cccc(C(F)(F)F)c4)CC3)C2)o1 (configuration not stated),"inconclusive: 28.2 µM [activator, partial curve, poor fit]",
N#C/C(=C\c1cccnc1)C(=O)Nc1cccc(Cl)c1,"inconclusive: 50.1 µM [activator, single point]",

Structure (SMILES),Potency,growth rescue (activation)
Cc1ccc2c(c1)c1c(n2CC(O)Cn2c(C)nc3ccccc32)/C(=N\O)CCC1 (configuration not stated),"inconclusive: 31.6 µM [activator, single point]",
COC(=O)c1scc(-c2ccc(C)cc2)c1S(=O)(=O)N1CCN(c2ccc(C(C)=O)cc2)CC1,"inconclusive: 28.2 µM [activator, partial curve, poor fit]",
O=C(O)c1ccc2c(c1)OCCO2,,inactive: -4.01%
COc1ccc(S[C@]2(C(=O)NCc3ccccc3)CC(=O)N[C@@H]2c2ccc(OC)cc2)cc1,,inactive: 37.8%
CC(C)CC(COCc1cccc(C(F)(F)F)c1)N1CCN(C(=O)c2cccc(C(F)(F)F)c2)CCC1=O (configuration not stated),"inconclusive: 7.94 µM [activator, partial curve, poor fit]",
O=C(Cc1ccc(F)cc1)N1CCC(CC2CC(c3cccc(Br)c3)=NO2)(C(=O)NCC2CCCCC2)CC1 (configuration not stated),"inconclusive: 31.6 µM [activator, single point]",
C=CCNC(=S)Nc1sc2c(c1C(=O)OCC)CC(C)(CC)OC2 (configuration not stated),"inconclusive: 15.8 µM [activator, partial curve]",
O=C(NC(C(=O)N/N=C/c1c2ccccc2cc2ccccc12)c1n[nH]c(=O)c2ccccc12)c1ccccc1 (configuration not stated),"inconclusive: 31.6 µM [activator, partial curve, poor fit]",
Cc1ccc(CNC(=O)c2ccc(CSCc3cccc(C)c3)o2)cc1,,inactive: 24.5%
CCOC1=C2[C@H](c3ccccc3)N(S(=O)(=O)c3ccc(C)cc3)C(C(C)(C)C)[C@H]2n2c(=O)n(-c3ccccc3)c(=O)n2C1 (some centres not stated),"inconclusive: 35.5 µM [activator, single point]",
Cc1nc(-c2ccccc2)cc(-c2ccccc2)n1,,inactive: -5.63%
COc1ccc(C(C)(O)c2nc(-c3ccc(OC)c(OC)c3)cs2)cc1 (configuration not stated),,inactive: 28.5%
COc1ccc(C2=NNC(=Nc3cc(S(=O)(=O)N(C)C)ccc3C)SC2)c(OC)c1,,inactive: 38.8%
O=C(Nc1ccc(-n2nncc2-c2ccco2)cc1)c1cc2ccccc2oc1=O,"inconclusive: 31.6 µM [activator, partial curve, poor fit]",
CC1(OC(=O)CCc2ccccc2)C(=O)C=C2C=C(c3ccc(C#N)cc3)N(Cc3ccccc3)C=C2C1=O (configuration not stated),"inconclusive: 31.6 µM [activator, single point]",
COc1ccccc1NC(=O)c1ccc(CN2C(=O)C(C)=C(c3ccc(C)c(C)c3)S2(=O)=O)cc1,,inactive: 13.2%
COc1ccc(CCNC(=S)NC(=O)/C=C/c2ccc(C)cc2)cc1OC,"inconclusive: 50.1 µM [activator, partial curve, poor fit]",
COc1ccc(N2CCN(C(=O)CSc3nnc4c(C)cc5ccc(C)c(C)c5n34)CC2)cc1,"inconclusive: 22.4 µM [activator, partial curve, poor fit]",
COc1ccc(Cl)cc1-c1cc(C(=O)NCc2ccccc2)[nH]n1,"inconclusive: 31.6 µM [activator, partial curve, poor fit]",
Cc1ccc(CN2CC(=O)N3[C@H]4c5cc(C)ccc5OC[C@@H]4[C@H](c4ccccc4)[C@]3(C)C2=O)cc1,"inconclusive: 20 µM [activator, partial curve]",
